# Results as given in PubChem BioAssay (NCATS).
# Inconclusive results, whose numbers are uncertain, are shown with a selection of clear calls. For some of these results: Potencies beside an inconclusive call are fits to weak or partial responses and may not hold up. The source made the active and inactive calls. Calls follow the shape of the dose curve; as a rule, active = well fitted curve in the direction sought with a large enough effect; inconclusive = small, poorly fitted or top-dose-only effect, or another doubt; inactive = no such curve, though single readings can be large; an effect the other way counts as inactive or inconclusive.
# Legend:
# [1] = target: Rap guanine nucleotide exchange factor 3 (Homo sapiens) (UniProt O95398); assay: Confirmatory qHTS for antagonist of cAMP-regulated guanine nucleotide exchange factor 3 (EPAC1) (AID 1645880); details: EPAC1 Rap1B-BODIPY-GDP exchange, fluorescence; activity, negative = inhibition: at 115 µM (top of the series); also: nearly all actives have a fitted effect of over 55% in size;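 as to activity, negative = inhibition: plate controls were DMSO only for no effect and full effect of the ATA control for full effect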
# Summary of the method: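 Released BODIPY-GDP fluoresces less than Rap1-bound BODIPY-GDP; the signal is followed at 480/540 nm at 5-min intervals over 30 min, after 5 min at room temperature. Reactions contain 100 nM EPAC1, 250 nM RAP1B-BODIPY-GDP and 50 uM GDP; results are normalized to ATA and DMSO.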
# [2] = target: Rap guanine nucleotide exchange factor 3 (Homo sapiens) (UniProt O95398); assay: Counterscreen qHTS for agonist of cAMP-regulated guanine nucleotide exchange factor 3 (EPAC1) (AID 1645889); details: EPAC1 Rap1B-BODIPY-GDP exchange, fluorescence; activation: at 154 µM (top of the series) unless noted; also: nearly all actives have a fitted effect of over 40% in size; as to activation: % of control where 0% means no effect
# Summary of the method: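 Rap1B–BODIPY-GDP (250 nM) with 50 uM GDP; compounds pin-transferred to 9.74 nM–152 uM final (activator) or from 7.32 nM upwards (inhibitor). Fluorescence Ex/Em 480/540 nm read at 5 and 30 min, then after adding cAMP or buffer, at room temperature.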
# [3] = target: DNA polymerase eta (Homo sapiens) (UniProt Q9Y253); assay: qHTS for Inhibitors of Polymerase Eta: Confirmatory Assay for Cherry-picked Compounds (AID 720502); details: Pol eta primer extension, TAMRA/BHQ fluorescence, 10 min
# Summary of the method: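 Compounds are preincubated 15 min at room temperature with 10 nM human Pol eta, with buffer-only wells serving as negative control. Adding 50 nM final substrate starts the reaction, and TAMRA fluorescence is read over 10 min.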
# [4] = target: Rap guanine nucleotide exchange factor 4 (Homo sapiens) (UniProt Q8WZA2); assay: Confirmatory qHTS for antagonist of cAMP-regulated guanine nucleotide exchange factor 4 (EPAC2) (AID 1645885); details: activity change, negative = inhibition: at 12.7 µM (top of the series) unless noted; also: nearly all actives have a fitted effect of over 25% in size
# [5] = target: RecQ-like DNA helicase BLM (Homo sapiens) (UniProt P54132); assay: qHTS for Inhibitors of WRN Helicase: BLM Helicase Counterscreen for WRN Inhibitors (AID 720503); also: nearly all actives have a fitted effect of over 60% in size
# Summary of the method: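 BLM (1 nM) was preincubated with compounds for 15 min at room temperature in Tris-HCl pH 8.0, 50 mM NaCl, 2 mM MgCl2 buffer. Unwinding started with 100 nM DNA and 2 mM ATP (final); red fluorescence was read twice, 15 min apart.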
# Potency is read from the fitted curve at half-maximal effect; tags tell the direction and shape of the fitted curve.
# Chain of UniProt O95398 (O95398 whole entry, looked up): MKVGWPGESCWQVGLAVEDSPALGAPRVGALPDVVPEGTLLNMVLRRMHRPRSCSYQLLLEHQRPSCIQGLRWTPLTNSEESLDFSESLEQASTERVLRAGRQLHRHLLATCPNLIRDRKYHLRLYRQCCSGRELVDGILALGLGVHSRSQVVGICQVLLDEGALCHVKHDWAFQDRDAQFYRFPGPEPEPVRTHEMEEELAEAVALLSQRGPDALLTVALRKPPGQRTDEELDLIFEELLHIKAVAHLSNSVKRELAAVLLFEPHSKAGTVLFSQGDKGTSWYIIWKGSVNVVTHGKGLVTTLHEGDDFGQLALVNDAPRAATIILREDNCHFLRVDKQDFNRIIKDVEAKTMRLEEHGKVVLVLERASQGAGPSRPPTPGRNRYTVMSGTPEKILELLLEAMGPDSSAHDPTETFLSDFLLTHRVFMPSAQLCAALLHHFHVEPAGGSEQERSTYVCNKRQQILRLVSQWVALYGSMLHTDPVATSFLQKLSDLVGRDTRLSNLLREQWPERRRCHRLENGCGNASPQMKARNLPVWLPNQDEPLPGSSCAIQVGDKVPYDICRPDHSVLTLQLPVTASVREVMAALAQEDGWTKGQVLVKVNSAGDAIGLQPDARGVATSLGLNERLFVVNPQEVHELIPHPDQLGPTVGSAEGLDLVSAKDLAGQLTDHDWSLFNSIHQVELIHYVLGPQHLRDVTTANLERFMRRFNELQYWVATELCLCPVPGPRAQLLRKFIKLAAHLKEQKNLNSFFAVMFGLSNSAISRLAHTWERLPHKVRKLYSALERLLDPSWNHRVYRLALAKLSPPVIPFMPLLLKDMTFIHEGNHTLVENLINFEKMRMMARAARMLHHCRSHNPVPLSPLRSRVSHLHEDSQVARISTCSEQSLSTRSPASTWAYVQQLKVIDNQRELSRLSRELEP
# Chain of UniProt Q8WZA2 (Q8WZA2 whole entry, looked up): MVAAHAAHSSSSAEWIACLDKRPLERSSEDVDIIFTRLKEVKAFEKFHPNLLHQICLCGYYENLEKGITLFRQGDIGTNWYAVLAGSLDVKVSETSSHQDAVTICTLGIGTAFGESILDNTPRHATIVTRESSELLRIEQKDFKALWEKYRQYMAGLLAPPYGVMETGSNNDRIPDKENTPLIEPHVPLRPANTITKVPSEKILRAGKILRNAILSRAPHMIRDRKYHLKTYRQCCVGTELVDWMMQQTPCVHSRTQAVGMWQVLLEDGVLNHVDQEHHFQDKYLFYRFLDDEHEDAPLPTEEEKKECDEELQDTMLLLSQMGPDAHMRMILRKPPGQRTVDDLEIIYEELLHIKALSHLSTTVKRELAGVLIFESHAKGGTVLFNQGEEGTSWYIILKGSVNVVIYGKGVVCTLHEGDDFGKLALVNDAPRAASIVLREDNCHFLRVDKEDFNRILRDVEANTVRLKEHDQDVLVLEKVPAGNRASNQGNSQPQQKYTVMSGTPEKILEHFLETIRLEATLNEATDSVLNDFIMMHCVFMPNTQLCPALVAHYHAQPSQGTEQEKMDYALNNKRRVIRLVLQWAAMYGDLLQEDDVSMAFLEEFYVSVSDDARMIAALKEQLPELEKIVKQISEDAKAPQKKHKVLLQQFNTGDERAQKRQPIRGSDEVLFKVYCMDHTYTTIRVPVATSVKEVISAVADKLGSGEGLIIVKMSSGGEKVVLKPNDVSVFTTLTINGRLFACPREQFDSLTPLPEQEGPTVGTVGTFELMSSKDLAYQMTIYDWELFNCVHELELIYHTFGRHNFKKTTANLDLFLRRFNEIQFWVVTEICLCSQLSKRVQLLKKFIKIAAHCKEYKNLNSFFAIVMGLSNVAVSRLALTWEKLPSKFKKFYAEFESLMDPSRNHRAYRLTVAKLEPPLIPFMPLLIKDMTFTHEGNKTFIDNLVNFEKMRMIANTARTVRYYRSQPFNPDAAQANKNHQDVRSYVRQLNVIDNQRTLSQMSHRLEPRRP
# Chain of UniProt P54132 (P54132 whole entry, looked up): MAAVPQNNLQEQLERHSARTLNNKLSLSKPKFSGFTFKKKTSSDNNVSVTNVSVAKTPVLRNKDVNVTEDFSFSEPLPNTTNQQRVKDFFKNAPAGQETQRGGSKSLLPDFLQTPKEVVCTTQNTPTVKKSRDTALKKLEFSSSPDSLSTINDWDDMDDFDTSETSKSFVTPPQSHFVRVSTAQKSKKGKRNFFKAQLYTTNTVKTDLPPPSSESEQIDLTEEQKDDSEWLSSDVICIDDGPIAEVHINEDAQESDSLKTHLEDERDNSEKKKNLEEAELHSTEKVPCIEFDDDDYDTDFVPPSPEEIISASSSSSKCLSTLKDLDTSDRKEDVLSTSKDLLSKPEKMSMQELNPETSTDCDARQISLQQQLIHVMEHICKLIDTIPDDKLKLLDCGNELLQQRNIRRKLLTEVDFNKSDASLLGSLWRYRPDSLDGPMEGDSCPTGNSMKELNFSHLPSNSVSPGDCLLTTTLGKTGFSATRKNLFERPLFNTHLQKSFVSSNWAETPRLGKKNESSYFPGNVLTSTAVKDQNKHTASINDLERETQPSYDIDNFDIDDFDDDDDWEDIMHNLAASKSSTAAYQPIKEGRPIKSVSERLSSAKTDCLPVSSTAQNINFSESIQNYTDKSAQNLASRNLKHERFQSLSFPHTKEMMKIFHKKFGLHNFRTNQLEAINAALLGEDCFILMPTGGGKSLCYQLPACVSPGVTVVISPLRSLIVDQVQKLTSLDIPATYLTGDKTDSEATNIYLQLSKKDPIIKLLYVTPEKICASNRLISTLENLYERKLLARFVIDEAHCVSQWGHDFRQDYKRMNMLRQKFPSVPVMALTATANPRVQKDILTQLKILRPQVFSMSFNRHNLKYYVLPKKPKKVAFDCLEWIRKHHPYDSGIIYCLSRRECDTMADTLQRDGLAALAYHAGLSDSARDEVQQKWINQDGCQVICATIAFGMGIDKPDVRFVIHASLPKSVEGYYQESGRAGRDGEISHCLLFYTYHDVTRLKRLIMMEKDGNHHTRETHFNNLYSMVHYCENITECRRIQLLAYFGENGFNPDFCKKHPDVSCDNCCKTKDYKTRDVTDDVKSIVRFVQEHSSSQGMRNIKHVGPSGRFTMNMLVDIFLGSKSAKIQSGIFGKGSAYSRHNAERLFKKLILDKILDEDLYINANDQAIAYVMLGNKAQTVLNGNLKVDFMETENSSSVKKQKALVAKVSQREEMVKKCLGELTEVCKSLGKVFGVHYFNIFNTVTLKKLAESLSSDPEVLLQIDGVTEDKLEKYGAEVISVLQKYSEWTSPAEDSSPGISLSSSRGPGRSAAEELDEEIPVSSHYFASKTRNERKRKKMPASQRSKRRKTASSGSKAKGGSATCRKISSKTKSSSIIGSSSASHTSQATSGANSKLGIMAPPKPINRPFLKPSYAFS
# Chain of UniProt Q9Y253 (Q9Y253 whole entry, looked up): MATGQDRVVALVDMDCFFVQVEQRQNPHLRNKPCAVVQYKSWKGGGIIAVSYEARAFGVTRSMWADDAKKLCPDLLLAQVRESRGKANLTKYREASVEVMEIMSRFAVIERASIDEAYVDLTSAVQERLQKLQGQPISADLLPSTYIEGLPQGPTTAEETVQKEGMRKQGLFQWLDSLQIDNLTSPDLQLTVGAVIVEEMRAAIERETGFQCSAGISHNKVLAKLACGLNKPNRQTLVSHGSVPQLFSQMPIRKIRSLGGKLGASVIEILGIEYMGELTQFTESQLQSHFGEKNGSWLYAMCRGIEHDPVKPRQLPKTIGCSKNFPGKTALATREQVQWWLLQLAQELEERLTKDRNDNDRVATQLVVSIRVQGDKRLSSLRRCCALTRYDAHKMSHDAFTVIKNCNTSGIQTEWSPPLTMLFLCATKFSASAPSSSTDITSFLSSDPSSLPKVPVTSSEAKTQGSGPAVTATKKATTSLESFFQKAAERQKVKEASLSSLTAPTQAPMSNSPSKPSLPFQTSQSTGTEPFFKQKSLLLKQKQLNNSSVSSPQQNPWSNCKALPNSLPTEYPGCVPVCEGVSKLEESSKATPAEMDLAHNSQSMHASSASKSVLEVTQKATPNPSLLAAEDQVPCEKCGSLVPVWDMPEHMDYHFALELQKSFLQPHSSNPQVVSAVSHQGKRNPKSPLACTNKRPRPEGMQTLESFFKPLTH
smiles,measurement,setting,value
O=C(C1CCN(S(=O)(=O)N2CCOCC2)CC1)N1CCN(c2ccccc2)CC1,Potency,[1],inactive
same,Potency,[2],inactive
CC1(C)CC(=O)C2=C(C1)c1c(ccc3ccccc13)NC2c1cc([N+](=O)[O-])cc([N+](=O)[O-])c1O (stereo unspecified),Potency,[3],"inconclusive: 95.3 µM [inhibitor, single point]"
same,Potency,[1],active: 9.53 µM
same,Potency,[4],active: 26.9 µM
O=C(CSc1ccc(-c2ccco2)nn1)c1ccc(F)cc1,Potency,[1],"inconclusive: 84.9 µM [inhibitor, partial curve, poor fit]"
same,Potency,[2],inactive
O=C(Nc1nc(-c2ccco2)c(-c2ccco2)s1)c1ccco1,Potency,[1],"inconclusive: 3.55 µM [inhibitor, full curve]"
same,Potency,[2],"inconclusive: 0.794 µM [activator, full curve, poor fit]"
COc1ccc(Cl)cc1NC(=O)CN(C)C(=O)c1cc(-c2ccncc2)nc2ccccc12,Potency,[1],"inconclusive: 84.9 µM [inhibitor, partial curve, poor fit]"
same,activation,[2],inconclusive: 26.1% [activator]
CCOc1cc(CNc2ccc(O)cc2)cc(Cl)c1OCc1ccccc1,Potency,[1],"inconclusive: 95.3 µM [inhibitor, single point]"
same,Potency,[2],"inconclusive: 3.16 µM [activator, full curve, poor fit]"
O=C1NC[C@@H](Cc2cccc3ccccc23)N(CCc2cc(C(F)(F)F)cc(C(F)(F)F)c2)C1=O,Potency,[1],"inconclusive: 37.9 µM [inhibitor, full curve]"
same,activation,[2],inconclusive: -52.7% [activator]
CC(=O)Nc1ccc(N(C(=O)Cn2nnc3ccccc32)C(C(=O)NC2CCCC2)c2ccc(O)c(O)c2)cc1 (stereo unspecified),Potency,[1],"inconclusive: 47.8 µM [inhibitor, partial curve]"
same,Potency,[2],"inconclusive: 22.4 µM [activator, single point]"
CCCc1cc(C(=O)Nc2ccccc2SC)no1,Potency,[1],inactive
same,activation,[2],inconclusive: 58.1% [activator]
COc1cc(/C=C(\C#N)c2nc3ccc(C)cc3[nH]2)cc([N+](=O)[O-])c1O,Potency,[5],active: 12.1 µM
same,Potency,[1],active: 33.8 µM
same,Potency,[4],active: 75.7 µM
Cc1cccc(S(=O)(=O)Nc2ccc(S(=O)(=O)Nc3nccs3)cc2)c1,Potency,[1],"inconclusive: 84.9 µM [inhibitor, partial curve, poor fit]"
same,Potency,[2],"inconclusive: 0.01 µM [activator, full curve, poor fit]"
COc1ccc(Nc2nnc(-c3ccc(O)cc3)c3ccccc23)cc1,Potency,[1],"inconclusive: 44.7 µM [inhibitor, partial curve, poor fit]"
same,activation,[2],inactive: 26.4% [at 30.8 µM]
CC1=NN(c2ccccc2)C(=O)C1=Cc1ccccc1,Potency,[1],"inconclusive: 56.2 µM [inhibitor, partial curve, poor fit]"
same,Potency,[2],"inconclusive: 11.2 µM [activator, partial curve]"
Cc1cccc(OCCCSc2nc(-c3ccc(C(C)(C)C)cc3)nc3cc(=O)[nH]n23)c1C,Potency,[1],active: 37.9 µM
same,Potency,[2],inactive
COc1ccc(OC)c(-n2c(SC)nnc2-c2c[nH]c3ccccc23)c1,Potency,[1],"inconclusive: 84.9 µM [inhibitor, partial curve]"
same,Potency,[2],"inconclusive: 17.8 µM [activator, partial curve, poor fit]"
CCOC(=O)c1nc(C)nc(Sc2n[nH]c(-c3cc(Cl)cc(Cl)c3)n2)c1C,Potency,[1],"inconclusive: 10 µM [inhibitor, full curve, poor fit]"
same,activation,[2],inactive: 19.4% [at 30.8 µM]
O=c1[nH][nH]c(-c2ccccc2O)c1C(C[N+](=O)[O-])c1ccc(Br)cc1 (stereo unspecified),Potency,[1],"inconclusive: 95.3 µM [inhibitor, partial curve, poor fit]"
same,Potency,[2],"inconclusive: 15.8 µM [activator, partial curve, poor fit]"
CCOc1ccc(N2C(=O)C3Sc4[nH]c(=O)sc4C(/C=C/c4ccccc4)C3C2=O)cc1 (stereo unspecified),Potency,[1],"inconclusive: 50.1 µM [inhibitor, partial curve]"
same,Potency,[2],"inconclusive: 14.1 µM [activator, partial curve, poor fit]"
C[C@@H]1CC=C[C@H]2[C@H]1C(=O)N(Cc1ccccc1)[C@H]2c1ccc(C(F)(F)F)cc1,Potency,[1],"inconclusive: 14.1 µM [inhibitor, partial curve]"
same,activation,[2],inactive: 7.88% [at 30.8 µM]
Cc1ccn2c(=O)nc(SCC(=O)Nc3ccc4c(c3)OCO4)nc2c1,Potency,[1],"inconclusive: 47.8 µM [inhibitor, partial curve]"
same,Potency,[2],"inconclusive: 0.501 µM [activator, full curve, poor fit]"
COc1ccc2nc(N3CCCC3)c(C#N)cc2c1,Potency,[1],"inconclusive: 50.1 µM [inhibitor, partial curve, poor fit]"
same,activation,[2],inconclusive: 38.3% [activator] [at 30.8 µM]
CC1CC(C)CN(C(=O)c2ccc3c(c2)N(Cc2ccccc2)CCS3)C1 (stereo unspecified),Potency,[1],"inconclusive: 15.8 µM [inhibitor, partial curve, poor fit]"
same,Potency,[2],"inconclusive: 0.891 µM [activator, full curve, poor fit]"
